According to PubChem BioAssay AID1346428 (National Center for Advancing Translational Sciences (NCATS), 2018):
In all, about 48,000 compounds went through this assay and about 1,200 (2.5%) were called active. Roughly 2% stayed inconclusive and do not appear here.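 Rule for the calls: active = activation of at least 60% and not above a set upper limit (about 1 call in 100 departs from these limits); inconclusive = activation of 40% to 60%, or above that upper limit; inactive = activation under 40%.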 Some of the results follow.

molecular target: Probable G-protein coupled receptor 32 (Homo sapiens) (UniProt O75388); assay: qHTS for Agonists of Human Resolvin D1 Receptor DRV1; details: CHO-K1 GPR32 beta-arrestin PathHunter luminescence, 90 min; at 76.9 µM; active compounds read high; zero percent set by DMSO-only wells; note: 0% is about no effect
Method in brief: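 PathHunter enzyme-fragment complementation, CHO-K1 GPR32 stable line; 2,500 cells/well, overnight attach; cpd 90 min 37 °C 5% CO2; detection reagent 1 h RT; chemiluminescence. DMSO = EC0.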

UniProt O75388, sequence (O75388 whole entry, looked up, the tested form may be a part): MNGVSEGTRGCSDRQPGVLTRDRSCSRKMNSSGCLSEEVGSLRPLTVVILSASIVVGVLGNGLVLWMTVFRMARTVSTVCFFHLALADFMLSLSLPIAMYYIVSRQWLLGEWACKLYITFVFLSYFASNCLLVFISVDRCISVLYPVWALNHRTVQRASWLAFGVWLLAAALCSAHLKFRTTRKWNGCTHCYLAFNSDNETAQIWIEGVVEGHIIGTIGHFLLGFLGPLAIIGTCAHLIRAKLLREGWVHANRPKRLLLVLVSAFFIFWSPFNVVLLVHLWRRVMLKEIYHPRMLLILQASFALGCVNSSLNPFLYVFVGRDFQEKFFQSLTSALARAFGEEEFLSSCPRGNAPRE

activation, inactive:
CCOC(=O)C1CCC(CN(Cc2ccc(Cl)cc2)S(=O)(=O)c2cccc(Cl)c2C)CC1 (stereo not drawn) 3.73%, CCCCOc1ccc(C(=O)Nc2ccc3c(c2)CCCN3C(=O)c2cccs2)cc1 4.88%, Cc1nc2nc(NC(=O)c3ccc(C(C)(C)C)cc3)[nH]n2c(=O)c1C 15.7%, CCOC(=O)C1CCN(C(=O)c2ccccc2NC(=O)c2nsc3ccccc23)CC1 -20.3%, CCOc1ccc(NS(=O)(=O)c2c(C)nc3sc(C)c(C)n3c2=O)cc1 12.7%, CCN1C(=O)c2ccccc2S(=O)(=O)c2ccc(C(=O)NCc3ccccc3)cc21 -11.7%, O=C(CSc1ncc(-c2ccccc2)[nH]1)Nc1ccccc1 -15.5%, NC(=O)C1CCN(S(=O)(=O)c2cc3c(cc2Cl)NC(=O)CO3)CC1 6.43%, O=C(CCC1N=C2c3ccccc3N=C(SCC(=O)Nc3cccc(Cl)c3)N2C1=O)NCc1ccco1 (stereo not drawn) -23.5%, CCc1ccc(-c2nc(CS(=O)CC(=O)NCCc3ccc(C)cc3)c(C)o2)cc1 (stereo not drawn) 3.22%, CCOc1ccc(N(C)C(=O)c2oc(=O)c3ccccc3c2-c2ccccc2)cc1 -27.4%, CC(C)c1cnc2c(c1SCC(=O)NC(C)(C)C)c(=O)n(C)c(=O)n2C -19.9%, Cc1ccc(N(CC(=O)N2CCN(c3cc(C)ccc3C)CC2)S(=O)(=O)c2c(C)nn(C)c2C)cc1 5.79%, O=C(O)CC1c2ccccc2CCN1C(=O)Nc1cc(Cl)ccc1Cl (stereo not drawn) -20.2%, CCn1cc2c(n1)-c1c(oc(C(=O)Nc3ccc(Br)cc3F)c1C)CC2 -5.22%, CCOC(=O)c1noc2nc(C)n(CC(=O)Nc3cccc(OC)c3)c(=O)c12 -6.25%, Cc1ccc(CN(C(=O)c2ccc(OCC(C)C)cc2)c2ccccn2)o1 -8.32%, COC(=O)COc1ccc(-c2nnc(Nc3ccc(O)cc3)c3ccccc23)cc1 18.8%, Cc1cc(Cl)ccc1-n1c(CCC(=O)O)ccc1-c1cccs1 -0.77%, CCCCC1CCC(C(=O)N2CC(=O)Nc3ccc(Br)cc3C2c2ccc(F)cc2)CC1 (stereo not drawn) -22.6%, Cc1cccc2c1-c1sc(C(=O)Nc3ccc(F)cc3F)cc1CO2 38.2%, CCc1c(C)c2ccc(O)c(CN3CCN(c4cc(Cl)ccc4C)CC3)c2oc1=O 20.9%, CCc1ccc(S(=O)(=O)c2nnn3c2nc(N2CCN(c4ccccc4)CC2)c2cc(Cl)ccc23)cc1 2.09%, CCC(=O)OCc1cc(=O)n2nc(C3CC3)sc2n1 1.5%, Cc1ccc(NC(=O)CN2C(=O)COc3ccc(S(=O)(=O)N4CCCCCC4)cc32)c(C)c1 -18.4%, Cc1ccc(CNC(=O)C(=O)Nc2c3c(nn2-c2ccc(F)cc2)CSC3)cc1 -16.1%, Cc1ccc(CNC(=O)c2ccc(N3CCCC3)c(NC(=O)Nc3ccc(C)cc3)c2)cc1 -15.7%, CCN(CC)C(=O)Cn1c(=O)n(CCCCCC(=O)NCc2ccc3c(c2)OCO3)c(=O)c2sccc21 -11.9%, O=c1c2sc3ccccc3c2n(Cc2cccc(F)c2)c(=O)n1CCc1ccccc1 -6.04%, CN(C(=O)Cn1nc(Cc2cccnc2)c2ccccc2c1=O)c1cccc(C(F)(F)F)c1 -30.2%, CCCc1cc(=O)oc2c3c(ccc12)OCN(Cc1ccccc1OC)C3 -4.65%, Fc1ccc(CN2CCc3nc(N4CCN(c5ccccc5F)CC4)ncc3C2)c(F)c1 -20.3%, Cc1ccc(-n2nc(C)c3c(C)c(CCC(=O)NC(C)c4ccccc4)c(C)nc32)cc1 (stereo not drawn) -0.996%, Cc1ccc(NC(=O)Cn2c(=O)n(-c3ccc(C)cc3)c(=O)c3c2cnn3C)cc1 -17.1%, Cc1ccc(Cc2nc3ccccc3nc2SCC(=O)N2CCC(C)CC2)cc1 -11.4%, O=C(NCCc1ccc(Cl)cc1)C1CCN(Cc2cc3ccccc3n2Cc2ccccc2)CC1 -11.2%, COc1ccc(CCNC(=O)CCc2cn(Cc3ccccc3Cl)c3ccccc23)c(OC)c1 -21.1%, Cc1ccc(CNC(=O)c2ccc(CSc3nc4ccncc4n3Cc3ccc(C)cc3)cc2)cc1 8.32%, COc1cccc(C(=O)Nc2ccc3nc(SCC(=O)N(C)c4ccccc4)sc3c2)c1 -1.64%, CCOc1ccc(NC(=O)c2c(C)oc3nc(C)nc(N4CCCC4)c23)cc1 -21.7%, COc1ccccc1CCNC(=O)c1cccn1-c1nnc(N2CCCC2)s1 11.6%, Cc1cc(C)c(NC(=O)Cn2c(=O)oc3cc(S(=O)(=O)N4CCCCCC4)ccc32)c(C)c1 9.39%, CCOc1ccc(-c2cc(NC(=O)c3ccccc3)c(C(=O)OC)s2)cc1 6.45%, Cc1ccc(Cl)cc1N1CCN(c2ncnc3c2nc2n3CCCC2)CC1 -6.15%, CCCN(C(=O)c1cc(S(=O)(=O)N2CCc3ccccc32)cn1C)c1ccc(OCC)cc1 -22.8%, COc1ccc(CNC(=O)Cn2c(=O)oc3cc(S(=O)(=O)NCc4ccccc4)ccc32)cc1 25.3%, CCOc1ccc(C2C(C(=O)Nc3ccccc3)=C(C)Nc3nc(-c4ccccc4Cl)nn32)cc1OC (stereo not drawn) -2.57%, Cc1ccccc1NC(=O)C(=O)NCC(c1ccc2c(c1)OCO2)N1CCN(c2ccccc2)CC1 (stereo not drawn) -13.6%, COc1ccc(NC(=O)c2cc3c(-c4ccccc4F)nn(C)c3s2)c(OC)c1 8.24%, Cc1ccccc1NC(=O)Cn1cc(S(=O)(=O)c2ccccc2)c(=O)c2ccccc21 -3.44%, CCOc1ccc(Nc2cc(C)nc3nncn23)cc1 -12.4%, O=C(Cn1nc(C(F)(F)F)c2c1CCCC2)Nc1cccc(Cl)c1 -5.12%, CCCn1c2ccccc2c2cnn(CC(=O)NCCCN3CCCCC3CC)c(=O)c21 (stereo not drawn) -19.9%
